# The list shows a part of the results.
# T1: UNK ZnF1-3 (human, UniProt Q9C0B0 31-174)
# T1 sequence: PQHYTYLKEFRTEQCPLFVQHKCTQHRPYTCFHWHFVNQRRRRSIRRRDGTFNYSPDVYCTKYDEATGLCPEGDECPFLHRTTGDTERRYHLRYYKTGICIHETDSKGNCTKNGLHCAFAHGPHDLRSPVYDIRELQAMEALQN
# B1: 21121154_21121371_2886_CDS_ENSG00000141458_ENST00000269228|human|control|control (ssRNA)
# RNA: GGGAGUUCUACAGUCCGACGAUCGAUGUCUAGCCGAUUUUUCUCUUGACGUUUAAUGUCUAACCCCAAGAGACUCACGAAACAGGUAAUCUGCAGAAGAAAGUCAAUGAAGACUGCCAAUCCCGCAAAGAGAGAGAAGGUGUGCAACAGAGGAUUGAGCAUCA
# B2: chr4:34756745:34756746:-_ENSMUSG00000039967_ENSMUST00000047950|mus_hu|motif|central (ssRNA)
# RNA: GGGAGUUCUACAGUCCGACGAUCUAUAUUUGGAUUUAUGACACUUUCCAUUGAGGACAACAAUGGAGUUGACACACUUGCGGAAUGAGCUGGAAAAAUGGGUGGCGAGACAUGCUGCAACUGGGCCGAACAAGCAGGAUUCCCCAACAGAGGAUUGAGCAUCA
# B3: 66471820_66471940_916_CDS_ENSMUSG00000015222_ENSMUST00000077355|mouse|control|control (ssRNA)
# RNA: GGGAGUUCUACAGUCCGACGAUCCAGGAUGCCAGAUUUGGGGGUUCCUGGUGUCCUGGGGUAGCUCGGGGUUCCCGGGGUGCCUGGGGUACGUGAAGAGUAGCUUGGGGGAGUUCCAGGGGUGAUUGCAGUUGAUCCAGGGGUCAACAGAGGAUUGAGCAUCA
# B4: 60066986_60067106_270_3pUTR_ENSMUSG00000026977_ENSMUST00000102748|mouse|control|control (ssRNA)
# RNA: GGGAGUUCUACAGUCCGACGAUCUCUAGAAUGAUAUGAAUCAUUUAAACUGGUUCCUCUGUUUCCAGACACCAUCCUAGUGCUUAAAGAGCCAGAGGGUUGAACAGAAAUUCUUCUUGGAAUCCUGGAAGGUUUAGACUCCAUCAACAGAGGAUUGAGCAUCA
# B5: chr2:74706439:74706440:+_ENSMUSG00000027099_ENSMUST00000155844|mus_hu|motif|central (ssRNA)
# RNA: GGGAGUUCUACAGUCCGACGAUCUGUAGCUUCAUCACACCACUGAAGAUACAGCUCUGCAGUCAACAGCAUAUUGUUGACGGAUUCCAUGUAAGCUUUCAUUUCUGCUUUUUGGACUUCCUCCAGCCCAUCACUAAGAGAAUGCAACAGAGGAUUGAGCAUCA
# B6: chr1:113244022:113244023:-_ENSG00000155366_ENST00000369637|hu_hu|motif|central (ssRNA)
# RNA: GGGAGUUCUACAGUCCGACGAUCUAGGCGUGGCUCCCAGAGCGCUGGGAGGGAGGGCCCGUGCCACCACCUCGGGGCGGGAAAACAAUGCAGUCCUGGGCAGGAGGGAACUGAAAAUGGGAGCCUUCAGCAUGGAGCCCUCAGCAACAGAGGAUUGAGCAUCA
# B7: chr11:108017000:108017001:+_ENSG00000075239_ENST00000265838|hu_hu|FALSE|FALSE (ssRNA)
# RNA: GGGAGUUCUACAGUCCGACGAUCAUUCACUUUUUGGGGAUCAAUCUCCAACAUUUUAAUGUUUGCUAGUACAACCAGACUAAAGGCUUCAUUUACUUCCCACAUUGCAAUAUCUUCUUUUUUCAAUCCCACAUCUUUAAGAACCAACAGAGGAUUGAGCAUCA
# B8: chr8:74858975:74858976:-_ENSG00000154582_ENST00000284811|hu_mus|hu_hu_hu_mus_True|48_68 (ssRNA)
# RNA: GGGAGUUCUACAGUCCGACGAUCGACCUUGUAGGUAAAAUACAUGCACACUUUUGAUAGCACAUGUGAAGGUAUCUCUCUAAAAUUGACCUCAUUGGUUUCAUUCUCAGCAAACUGACCUGGACCACUCAACAUAGCCUUUAUCAACAGAGGAUUGAGCAUCA
# B9: chr8:81896215:81896216:-_ENSMUSG00000031681_ENSMUST00000066091|mus_hu|FALSE|FALSE (ssRNA)
# RNA: GGGAGUUCUACAGUCCGACGAUCGAGAUUUGUUUAUUUACAGAGAAGUCUCUUUAACUUCUUAGUUUGAAGUCCAGAAGAGUAGAAAUUACCAUUCCUAGUGUUUAAAAAAGUAACCCAGUCAGCACCGGGUUGGCGGCGCGCCAACAGAGGAUUGAGCAUCA
# B10: chr12:111875471:111875472:+_ENSMUSG00000018707_ENSMUST00000018851|mus_hu|FALSE|FALSE (ssRNA)
# RNA: GGGAGUUCUACAGUCCGACGAUCAUCUGUCCAUUCCCUGGUGUUGGGGUCCAGGGUUCCGUAGAGGUGGUCUUUGCUGAUGGCCUUGGGGUCGAUGAUAUGGGCCACACCUUCCACACCCUCGAGUCUCUCCAAUGCCUUCAGCAACAGAGGAUUGAGCAUCA
# B11: chr12:25358290:25358291:-_ENSG00000133703_ENST00000311936|hu_mus|motif|central (ssRNA)
# RNA: GGGAGUUCUACAGUCCGACGAUCGUACGGUUCAUGACAAAAAUAUUACAAAUUUCAGAUCACUUCACAGCACGUACUCCGGUAAACAUUUAAAAGUUAAUUUUAAUUAAGAGUGGUCACUUUUAAAUUUAAUGUUUGAUAUGACAACAGAGGAUUGAGCAUCA
# B12: chr22:46712247:46712248:+_ENSG00000075218_ENST00000454366|hu_hu|FALSE|FALSE (ssRNA)
# RNA: GGGAGUUCUACAGUCCGACGAUCAGUAGGCAUAACCUUUGUCUUGGAAUUUAGACAGGAAUCUCGCCGUCUGAUACUUCUAGUCUUAUUCAAUUGAGAAGAUUCUGACCAAGCGCAACUGGAGUUCAGCCACUGGCCGCCACCCAACAGAGGAUUGAGCAUCA
# B13: chr4:103717905:103717906:-_ENSG00000109332_ENST00000394803|hu_hu|motif|central (ssRNA)
# RNA: GGGAGUUCUACAGUCCGACGAUCCAGUGCUAUAUUAAACAGUGUAUUGGAAGAUAGAUUAACUAAUAGCUCCAAGCCUCCGGACAAUUUAAAUGAAAAUUACAAAAUGUUUGAGACCCUAUUUUGGAAUACAAAGGGUGUUUGCAACAGAGGAUUGAGCAUCA
# B14: 65695139_65695259_2033_3pUTR_ENSMUSG00000021978_ENSMUST00000022550|mouse|control|control (ssRNA)
# RNA: GGGAGUUCUACAGUCCGACGAUCGCAGCAUGUCGUGGUACGGGAGCUGCACCUGCUCCCCGAGCACCACCGGCACGGCCCCCACCUCCAGGGCCUCGAAGAGCCGCGUGGCACACCCAGAUGAAAUGAGCAGGUGCGGGUCCCCAACAGAGGAUUGAGCAUCA
# B15: chr5:61651017:61651018:+_ENSG00000068796_ENST00000381103|hu_mus|FALSE|FALSE (ssRNA)
# RNA: GGGAGUUCUACAGUCCGACGAUCCCUAUGUUCAUCAAUAGGAUCUGCUGUUGUUAGGGGUCUGUAAUCCAAGCUCCCUCUGAAGUCUCUGAUCAUACACAUAAUUUCGUAAUUUGGAUUUGUAGCAUCAACAUCCUGGGCUCUCAACAGAGGAUUGAGCAUCA
# B16: chr10:103870385:103870386:-_ENSG00000198728_ENST00000425280|hu_mus|FALSE|FALSE (ssRNA)
# RNA: GGGAGUUCUACAGUCCGACGAUCGUCACAGUCGAGGGACACGAAGUUGCUGUGGAAUGCCUCCUUGGGGUGCUUGAGCACGUAGUACAGCUCUGUGGCACCCCCCUCAAAAAUGCUUCGGAAGUAGCGUGGUAUCAGGGUCCGCAACAGAGGAUUGAGCAUCA
# B17: chr18:45374997:45374998:-_ENSG00000175387_ENST00000586040|hu_hu|motif|central (ssRNA)
# RNA: GGGAGUUCUACAGUCCGACGAUCUGAGGGCUGUGAUGCAUGGAAGGUUUCUCCAACCCUCUGAUUUAAUUCAUAAUAUGCGGUCGAACACCAAAAUGCAGGUUCUGAGUAAGUAACUGGCUGUAAAUCCAAGCUAUGAUUAACCAACAGAGGAUUGAGCAUCA
# B18: chr3:150289932:150289933:+_ENSG00000144895_ENST00000460851|hu_hu|hu_hu_hu_mus_False|58_98 (ssRNA)
# RNA: GGGAGUUCUACAGUCCGACGAUCCUUGUAGUUUUUAACAUCCCACACUUCCAUUUGUCCUCGAAGAUUUCCAAAUCCAGCUAAUACUAAUAUAUGUCCAUGAGGGCUAUAGAAGGCUGCGUUGCGAGGACCAGUCCCAAAGUCCAACAGAGGAUUGAGCAUCA
# B19: chr1:39494564:39494565:+_ENSG00000168653_ENST00000372967|hu_hu|hu_hu_hu_mus_True|48_98 (ssRNA)
# RNA: GGGAGUUCUACAGUCCGACGAUCAUGCAUUCGCCUCAUCGUUUUCUACCGAAGCAAGCACUCUUCGAAGUCAUCGAACUCUAUCUUGCACUCUUUCUUCGCCCGGGUCCCACCGAUCCCGUGUGCACACUCUAUCCACUCUUUCAACAGAGGAUUGAGCAUCA
# B20: chr1:169100865:169100866:+_ENSG00000143153_ENST00000367816|hu_mus|FALSE|FALSE (ssRNA)
# RNA: GGGAGUUCUACAGUCCGACGAUCGUGUAAAGCAUAGAGAUUAAGUGUAGGUCCCAUACGUAUGACAGUUUGUUCAAGACUAGUAGGUUUGUGUAUCUUUUUUUAACUUAUUAAAUGGCUAGUGGGAAAGAUUUGUGCUUGUGACAACAGAGGAUUGAGCAUCA
# B21: chr9:114624755:114624756:+_ENSMUSG00000032435_ENSMUST00000047404|mus_mus|motif|central (ssRNA)
# RNA: GGGAGUUCUACAGUCCGACGAUCGAUGUCUUCAAAAUUAUCUUCUACUUUCAAAGUCUGAAAAUUUUCAUGUAAUAUUCCGGUUUUCUUAUCAUUAUCCCACCCUGCUGGAAUAAACACUGCGUCCUUCUCCACCACCACCGCCAACAGAGGAUUGAGCAUCA
# B22: chr7:128503047:128503048:+_ENSG00000128524_ENST00000249289|hu_hu|FALSE|FALSE (ssRNA)
# RNA: GGGAGUUCUACAGUCCGACGAUCGGUUGUAUCCUUCUCCACCACCAGGAAAUUGGGAUGGCGGUUCUUGUUAAGCUCCCCUAUGCCGCCCAGCAGGAAACCAGUCACCGUGUCCUCGUCUCCGAUCACUGCGAUGAGCUUACCCAACAGAGGAUUGAGCAUCA
# Target: T1, UNK ZnF1-3
# Assay: nsRBNS (natural sequence RNA bind-n-seq); RBNS binding buffer (assumed for nsRBNS): 25 mM Tris pH 7.5, 150 mM KCl, 3 mM MgCl2, 0.01% Triton X-100, 500 ug/ml BSA, 20 U/ml SUPERase-In, 4 C; UNK is unkempt and MSI1 is Musashi-1; names of the RNAs are library labels; protein concentration not given here; high values mean tight binding
row,Binder,binding signal [enrichment R]
1,B1,1.06
2,B2,2.89
3,B3,2.3
4,B4,0.801
5,B5,0.518
6,B6,1.49
7,B7,0.785
8,B8,0.879
9,B9,0.746
10,B10,0.546
11,B11,1.09
12,B12,1.28
13,B13,1.37
14,B14,0.842
15,B15,1.23
16,B16,0.977
17,B17,1.24
18,B18,1.12
19,B19,0.67
20,B20,1.38
21,B21,0.919
22,B22,0.848

# — article PMC12136788
